# Measured values: the supplement of paper PMC4967469
# By IC50 is meant the dose at which the fit gives 50% viability; fits outside the tested doses are given as limits. AUC sums up the same curve from the lowest dose to the 256-fold higher top dose; the more sensitive the line, the further below 1. For part of these data: Where the top dose is marked as inferred, it is not printed in the source and was worked back from the curve model. For part of these data: Drugs with an entry number were screened twice under separate entries, and the two screens often disagree.
# Legend:
# Test in all cases: Viability of human cancer cell lines after 72 h of drug (GDSC screen)
# [1] = compound: C/C(O)=C(\C#N)C(=O)Nc1cc(Br)ccc1Br [LFM-A13]; conditions: top dose 16 µM; top dose inferred
# Experimental: (§1)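 Human cancer cell lines in 384-well plates, medium with 10% serum, drug for 72 h over a 256-fold dose range (nine 2-fold or five 4-fold steps up to the top dose). Adherent lines were fixed and stained with the nucleic acid dye Syto60, suspension lines read with resazurin; signal relative to control wells, capped at 0 and 100%. One two-parameter sigmoid per drug and line, fitted in a mixed model over all curves with the slope shared within a line.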
# [2] = compound: CC(C)c1ccccc1Cc1cc(C(=O)Nc2ccc(S(=O)(=O)c3ccccc3C(C)(C)C)cc2)c(O)c(O)c1O [TW-37]; conditions: top dose 5 µM
# Experimental: as §1
# [3] = compound: CC(O)(CS(=O)(=O)c1ccc(F)cc1)C(=O)Nc1ccc(C#N)c(C(F)(F)F)c1 [Bicalutamide]; conditions: top dose inferred
# Experimental: as §1
# [4] = compound: CCNC(=O)c1noc(-c2cc(C(C)C)c(O)cc2O)c1-c1ccc(CN2CCOCC2)cc1 [AUY922]; conditions: top dose 0.256 µM; top dose inferred
# Experimental: as §1
# [5] = compound: Cc1ccc(Nc2cc(-c3cccc(N4C(=O)c5ccccc5C4=O)c3)ncn2)cc1NS(C)(=O)=O [KIN001-270]; conditions: top dose 20 µM; top dose inferred
# Experimental: as §1
# [6] = compound: Cc1cn(-c2cc(NC(=O)c3ccc(C)c(Nc4nccc(-c5cccnc5)n4)c3)cc(C(F)(F)F)c2)cn1 [Nilotinib]; conditions: top dose 2 µM
# Experimental: as §1
# [7] = compound: Nc1ccn([C@@H]2O[C@H](CO)[C@@H](O)C2(F)F)c(=O)n1 [Gemcitabine]; conditions: top dose 1.024 µM
# Experimental: as §1
# [8] = compound: O=S(=O)(c1ccccc1)N(CC(F)(F)F)c1ccc(C(O)(C(F)(F)F)C(F)(F)F)cc1 [T0901317]; conditions: top dose 10.24 µM; top dose inferred
# Experimental: as §1
# [9] = compound: S=C(NCc1ccc2c(c1)OCO2)N1CCN(c2ncnc3c2oc2ccccc23)CC1 [MP470]; conditions: top dose 20 µM; top dose inferred
# Experimental: as §1
# [10] = top dose 1.024 µM, screen: GDSC drug entry 150
# [11] = top dose 10 µM, screen: GDSC drug entry 1502
cell line,measurement,setting,value
"PA-TU-8902 (pancreas, adherent)",AUC,[1],0.965
same,IC50,[1],> 16 µM
same,AUC,[2],0.609
same,IC50,[2],0.655 µM
same,AUC,[3]; [10],0.982
same,IC50,[3]; [10],> 1.02 µM
same,AUC,[3]; [11],0.975
same,IC50,[3]; [11],> 10 µM
same,AUC,[4],0.582
same,IC50,[4],0.0278 µM
same,AUC,[5],0.973
same,IC50,[5],> 20 µM
same,AUC,[6],0.982
same,IC50,[6],> 2 µM
same,AUC,[7],0.714
same,IC50,[7],0.29 µM
same,AUC,[8],0.965
same,IC50,[8],> 10.2 µM
same,AUC,[9],0.907
same,IC50,[9],> 20 µM
"TK (B-cell lymphoma, suspension)",AUC,[1],0.977
same,IC50,[1],> 16 µM
same,AUC,[2],0.603
same,IC50,[2],0.583 µM
same,AUC,[3]; [10],0.985
same,IC50,[3]; [10],> 1.02 µM
same,AUC,[3]; [11],0.986
same,IC50,[3]; [11],> 10 µM
same,AUC,[4],0.731
same,IC50,[4],0.0675 µM
same,AUC,[5],0.974
same,IC50,[5],> 20 µM
same,AUC,[6],0.983
same,IC50,[6],> 2 µM
same,AUC,[7],0.246
same,IC50,[7],0.0129 µM
same,AUC,[8],0.987
same,IC50,[8],> 10.2 µM
same,AUC,[9],0.978
same,IC50,[9],> 20 µM
"AU565 (breast, adherent)",AUC,[1],0.982
same,IC50,[1],> 16 µM
same,AUC,[2],0.534
same,IC50,[2],0.392 µM
same,AUC,[3]; [10],0.97
same,IC50,[3]; [10],> 1.02 µM
same,AUC,[4],0.757
same,IC50,[4],0.0973 µM
same,AUC,[5],0.962
same,IC50,[5],> 20 µM
same,AUC,[6],0.979
same,IC50,[6],> 2 µM
same,AUC,[7],0.388
same,IC50,[7],0.0303 µM
same,AUC,[8],0.974
same,IC50,[8],> 10.2 µM
same,AUC,[9],0.927
same,IC50,[9],> 20 µM
"NUGC-4 (stomach, adherent)",AUC,[1],0.986
same,IC50,[1],> 16 µM
same,AUC,[2],0.768
same,IC50,[2],1.88 µM
same,AUC,[3]; [10],0.988
same,IC50,[3]; [10],> 1.02 µM
same,AUC,[3]; [11],0.986
same,IC50,[3]; [11],> 10 µM
same,AUC,[4],0.633
same,IC50,[4],0.0373 µM
same,AUC,[5],0.956
same,IC50,[5],> 20 µM
same,AUC,[6],0.988
same,IC50,[6],> 2 µM
same,AUC,[7],0.613
same,IC50,[7],0.131 µM
same,AUC,[8],0.984
same,IC50,[8],> 10.2 µM
same,AUC,[9],0.963
same,IC50,[9],> 20 µM
"T-T (oesophagus, adherent)",AUC,[1],0.926
same,IC50,[1],> 16 µM
same,AUC,[2],0.49
same,IC50,[2],0.294 µM
same,AUC,[3]; [10],0.963
same,IC50,[3]; [10],> 1.02 µM
same,AUC,[3]; [11],0.976
same,IC50,[3]; [11],> 10 µM
same,AUC,[4],0.448
same,IC50,[4],0.0116 µM
same,AUC,[5],0.963
same,IC50,[5],> 20 µM
same,AUC,[6],0.941
same,IC50,[6],> 2 µM
same,AUC,[7],0.245
same,IC50,[7],0.0119 µM
same,AUC,[8],0.964
same,IC50,[8],> 10.2 µM
same,AUC,[9],0.914
same,IC50,[9],> 20 µM
"HCC-56 (large intestine, adherent)",AUC,[1],0.987
same,IC50,[1],> 16 µM
same,AUC,[2],0.802
same,IC50,[2],2.52 µM
same,AUC,[3]; [10],0.987
same,IC50,[3]; [10],> 1.02 µM
same,AUC,[3]; [11],0.986
same,IC50,[3]; [11],> 10 µM
same,AUC,[4],0.834
same,IC50,[4],0.172 µM
same,AUC,[5],0.987
same,IC50,[5],> 20 µM
same,AUC,[6],0.987
same,IC50,[6],> 2 µM
same,AUC,[7],0.889
same,IC50,[7],> 1.02 µM
same,AUC,[8],0.916
same,IC50,[8],> 10.2 µM
same,AUC,[9],0.341
same,IC50,[9],0.447 µM
"PC-3 [JPC-3] (lung adenocarcinoma, adherent)",AUC,[1],0.958
same,IC50,[1],> 16 µM
same,AUC,[2],0.834
same,IC50,[2],4.86 µM
same,AUC,[3]; [10],0.981
same,IC50,[3]; [10],> 1.02 µM
same,AUC,[3]; [11],0.965
same,IC50,[3]; [11],> 10 µM
same,AUC,[4],0.58
same,IC50,[4],0.0284 µM
same,AUC,[5],0.917
same,IC50,[5],> 20 µM
same,AUC,[6],0.981
same,IC50,[6],> 2 µM
same,AUC,[7],0.49
same,IC50,[7],0.0598 µM
same,AUC,[8],0.978
same,IC50,[8],> 10.2 µM
same,AUC,[9],0.948
same,IC50,[9],> 20 µM
"OE19 (oesophagus, adherent)",AUC,[1],0.966
same,IC50,[1],> 16 µM
same,AUC,[2],0.867
same,IC50,[2],> 5 µM
same,AUC,[3]; [10],0.986
same,IC50,[3]; [10],> 1.02 µM
same,AUC,[3]; [11],0.983
same,IC50,[3]; [11],> 10 µM
same,AUC,[4],0.561
same,IC50,[4],0.024 µM
same,AUC,[5],0.986
same,IC50,[5],> 20 µM
same,AUC,[6],0.985
same,IC50,[6],> 2 µM
same,AUC,[7],0.678
same,IC50,[7],0.216 µM
same,AUC,[8],0.981
same,IC50,[8],> 10.2 µM
same,AUC,[9],0.782
same,IC50,[9],9.58 µM
"CHSA0108 (chondrosarcoma, adherent)",AUC,[1],0.976
same,IC50,[1],> 16 µM
same,AUC,[2],0.573
same,IC50,[2],0.51 µM
same,AUC,[3]; [10],0.983
same,IC50,[3]; [10],> 1.02 µM
same,AUC,[3]; [11],0.97
same,IC50,[3]; [11],> 10 µM
same,AUC,[4],0.982
same,IC50,[4],> 0.256 µM
same,AUC,[5],0.984
same,IC50,[5],> 20 µM
same,AUC,[6],0.981
same,IC50,[6],> 2 µM
same,AUC,[7],0.939
same,IC50,[7],> 1.02 µM
same,AUC,[8],0.968
same,IC50,[8],> 10.2 µM
same,AUC,[9],0.85
same,IC50,[9],19 µM
"SJRH30 (rhabdomyosarcoma, adherent)",AUC,[1],0.966
same,IC50,[1],> 16 µM
same,AUC,[2],0.398
same,IC50,[2],0.163 µM
same,AUC,[3]; [10],0.985
same,IC50,[3]; [10],> 1.02 µM
same,AUC,[3]; [11],0.977
same,IC50,[3]; [11],> 10 µM
same,AUC,[4],0.67
same,IC50,[4],0.0484 µM
same,AUC,[5],0.986
same,IC50,[5],> 20 µM
same,AUC,[6],0.986
same,IC50,[6],> 2 µM
same,AUC,[7],0.535
same,IC50,[7],0.08 µM
same,AUC,[8],0.98
same,IC50,[8],> 10.2 µM
same,AUC,[9],0.936
same,IC50,[9],> 20 µM
"SNU-182 (liver, adherent)",AUC,[1],0.977
same,IC50,[1],> 16 µM
same,AUC,[2],0.482
same,IC50,[2],0.278 µM
same,AUC,[3]; [10],0.986
same,IC50,[3]; [10],> 1.02 µM
same,AUC,[3]; [11],0.979
same,IC50,[3]; [11],> 10 µM
same,AUC,[4],0.645
same,IC50,[4],0.0411 µM
same,AUC,[5],0.98
same,IC50,[5],> 20 µM
same,AUC,[6],0.967
same,IC50,[6],> 2 µM
same,AUC,[7],0.282
same,IC50,[7],0.015 µM
same,AUC,[8],0.976
same,IC50,[8],> 10.2 µM
same,AUC,[9],0.952
same,IC50,[9],> 20 µM
"Hs633T (fibrosarcoma, adherent)",AUC,[1],0.977
same,IC50,[1],> 16 µM
same,AUC,[2],0.386
same,IC50,[2],0.162 µM
same,AUC,[3]; [10],0.984
same,IC50,[3]; [10],> 1.02 µM
same,AUC,[3]; [11],0.974
same,IC50,[3]; [11],> 10 µM
same,AUC,[4],0.347
same,IC50,[4],0.00657 µM
same,AUC,[5],0.909
same,IC50,[5],19 µM
same,AUC,[6],0.971
same,IC50,[6],> 2 µM
same,AUC,[7],0.048
same,IC50,[7],< 0.004 µM
same,AUC,[8],0.982
same,IC50,[8],> 10.2 µM
same,AUC,[9],0.232
same,IC50,[9],0.252 µM
"EBC-1 (lung squamous cell carcinoma, adherent)",AUC,[1],0.974
same,IC50,[1],> 16 µM
same,AUC,[2],0.372
same,IC50,[2],0.132 µM
same,AUC,[3]; [10],0.981
same,IC50,[3]; [10],> 1.02 µM
same,AUC,[3]; [11],0.896
same,IC50,[3]; [11],> 10 µM
same,AUC,[4],0.534
same,IC50,[4],0.0201 µM
same,AUC,[5],0.954
same,IC50,[5],> 20 µM
same,AUC,[6],0.978
same,IC50,[6],> 2 µM
same,AUC,[7],0.12
same,IC50,[7],< 0.004 µM
same,AUC,[8],0.969
same,IC50,[8],> 10.2 µM
same,AUC,[9],0.92
same,IC50,[9],> 20 µM
